Results published in PMC9911399, “Two distinct binding modes provide the RNA-binding protein RbFox with extraordinary sequence specificity”.
Positions count from the first letter of the chain named. This is one part of the list.

B1: AAUUGGA (DNA:RNA)
RNA: GGGAGACCGGAAUUCAGAUUGUCCAAUUGGAUUAAAUCCCGUCGUAGCCACCA
DNA 1: CAATCTGAATTCCGGTCTCCC
DNA 2: TGGTGGCTACGACGGGATT
B2: UUUACCU (DNA:RNA)
RNA: B1 RNA with A25U, A26U, U28A, G29C, G30C, A31U
DNA 1: CAATCTGAATTCCGGTCTCCC
DNA 2: TGGTGGCTACGACGGGATT
B3: GCGUCCC (DNA:RNA)
RNA: B1 RNA with A25G, A26C, U27G, G29C, G30C, A31C
DNA 1: CAATCTGAATTCCGGTCTCCC
DNA 2: TGGTGGCTACGACGGGATT
B4: GCUUACC (DNA:RNA)
RNA: B1 RNA with A25G, A26C, G29A, G30C, A31C
DNA 1: CAATCTGAATTCCGGTCTCCC
DNA 2: TGGTGGCTACGACGGGATT
B5: UAACUGA (DNA:RNA)
RNA: B1 RNA with A25U, U27A, U28C, G29U
DNA 1: CAATCTGAATTCCGGTCTCCC
DNA 2: TGGTGGCTACGACGGGATT
B6: UCAUUGC (DNA:RNA)
RNA: B1 RNA with A25U, A26C, U27A, G29U, A31C
DNA 1: CAATCTGAATTCCGGTCTCCC
DNA 2: TGGTGGCTACGACGGGATT
B7: AUGUCGG (DNA:RNA)
RNA: B1 RNA with A26U, U27G, G29C, A31G
DNA 1: CAATCTGAATTCCGGTCTCCC
DNA 2: TGGTGGCTACGACGGGATT
B8: AUUUUAU (DNA:RNA)
RNA: B1 RNA with A26U, G29U, G30A, A31U
DNA 1: CAATCTGAATTCCGGTCTCCC
DNA 2: TGGTGGCTACGACGGGATT
B9: UUGCAAC (DNA:RNA)
RNA: GGGAGACCGGAAUUCAGAUUGUCCUUGCAACUUAAAUCCCGUCGUAGCCACCA
DNA 1: CAATCTGAATTCCGGTCTCCC
DNA 2: TGGTGGCTACGACGGGATT
B10: UCAGCAC (DNA:RNA)
RNA: B9 RNA with U26C, G27A, C28G, A29C
DNA 1: CAATCTGAATTCCGGTCTCCC
DNA 2: TGGTGGCTACGACGGGATT
B11: AAACACU (DNA:RNA)
RNA: B1 RNA with U27A, U28C, G29A, G30C, A31U
DNA 1: CAATCTGAATTCCGGTCTCCC
DNA 2: TGGTGGCTACGACGGGATT
B12: UGUAGGC (DNA:RNA)
RNA: B1 RNA with A25U, A26G, U28A, A31C
DNA 1: CAATCTGAATTCCGGTCTCCC
DNA 2: TGGTGGCTACGACGGGATT
B13: CCCGAUG (DNA:RNA)
RNA: B9 RNA with U25C, U26C, G27C, C28G, A30U, C31G
DNA 1: CAATCTGAATTCCGGTCTCCC
DNA 2: TGGTGGCTACGACGGGATT
B14: AUCAUAU (DNA:RNA)
RNA: B9 RNA with U25A, G27C, C28A, A29U, C31U
DNA 1: CAATCTGAATTCCGGTCTCCC
DNA 2: TGGTGGCTACGACGGGATT
B15: ACAUCAU (DNA:RNA)
RNA: B1 RNA with A26C, U27A, G29C, G30A, A31U
DNA 1: CAATCTGAATTCCGGTCTCCC
DNA 2: TGGTGGCTACGACGGGATT
B16: CUCCACU (DNA:RNA)
RNA: B9 RNA with U25C, G27C, A30C, C31U
DNA 1: CAATCTGAATTCCGGTCTCCC
DNA 2: TGGTGGCTACGACGGGATT
B17: GCCAUGU (DNA:RNA)
RNA: B1 RNA with A25G, A26C, U27C, U28A, G29U, A31U
DNA 1: CAATCTGAATTCCGGTCTCCC
DNA 2: TGGTGGCTACGACGGGATT
B18: GGUACGU (DNA:RNA)
RNA: B1 RNA with A25G, A26G, U28A, G29C, A31U
DNA 1: CAATCTGAATTCCGGTCTCCC
DNA 2: TGGTGGCTACGACGGGATT
B19: GUGAAUU (DNA:RNA)
RNA: B9 RNA with U25G, C28A, A30U, C31U
DNA 1: CAATCTGAATTCCGGTCTCCC
DNA 2: TGGTGGCTACGACGGGATT
B20: CGUAUUC (DNA:RNA)
RNA: B1 RNA with A25C, A26G, U28A, G29U, G30U, A31C
DNA 1: CAATCTGAATTCCGGTCTCCC
DNA 2: TGGTGGCTACGACGGGATT

The binders below were run against T1, RBFOX1 RRM RbFoxmut (Fox-RRM*) (Homo sapiens, UniProt Q9NWB1 109-208, R118D;E147R;N151S;E152T) (assay: EMSA; HiTS-Eq, 1 nM pool, 10 min; buffer printed only for the single-RNA assays: 10 mM Tris pH 7.5, 150 mM NaCl, 3.4 mM EDTA, 0.001% NP-40, 30 C). Conditions: tags: His6 N-terminal (pET28a); label: 5' 32P.
T1 sequence: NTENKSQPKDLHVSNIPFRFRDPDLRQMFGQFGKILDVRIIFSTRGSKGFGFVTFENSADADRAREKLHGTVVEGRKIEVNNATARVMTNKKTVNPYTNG
Outline: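 Relative association constants, normalised to the cognate motif, were derived by comparing read counts of each RNA species with those of the control reaction. The RNA sequenced was the free fraction, separated by 8% native PAGE after a 10 min equilibration in 50 µL of 1 nM 5′-radiolabelled RNA (7 randomized nucleotides) with increasing concentrations of purified wild-type or mutant RbFox RRM.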

Binder | binding signal
B1 | 0.0424 KA relative to UGCAUGU
B2 | 0.0995 KA relative to UGCAUGU
B3 | 0.075 KA relative to UGCAUGU
B4 | 0.0696 KA relative to UGCAUGU
B5 | 0.0661 KA relative to UGCAUGU
B6 | 0.12 KA relative to UGCAUGU
B7 | 0.1 KA relative to UGCAUGU
B8 | 0.135 KA relative to UGCAUGU
B9 | 0.057 KA relative to UGCAUGU
B10 | 0.083 KA relative to UGCAUGU
B11 | 0.0723 KA relative to UGCAUGU
B12 | 0.115 KA relative to UGCAUGU
B13 | 0.0971 KA relative to UGCAUGU
B14 | 0.111 KA relative to UGCAUGU
B15 | 0.104 KA relative to UGCAUGU
B16 | 0.0815 KA relative to UGCAUGU
B17 | 0.188 KA relative to UGCAUGU
B18 | 0.243 KA relative to UGCAUGU
B19 | 0.118 KA relative to UGCAUGU
B20 | 0.101 KA relative to UGCAUGU
